Data from PMC9870993.
Read-outs that look alike come from different tables or passages of the source. No constants are given. Whether binding was seen depends on the method and setting. For part of these data: In cells and extracts the contact can be indirect. Some binding calls cover weakened binding; strength is not graded here. For part of these data: Tags and fused reporters may be left off the sequences shown.

The chains behind the UniProt entries cited, without tags or fusion partners. Where a name states a change or a piece, a line headed by the entry shows the natural chain unless it says otherwise. A line that says so, or that is headed by a name, gives the form on record, which may keep a tag or linker.
UniProt Q05609: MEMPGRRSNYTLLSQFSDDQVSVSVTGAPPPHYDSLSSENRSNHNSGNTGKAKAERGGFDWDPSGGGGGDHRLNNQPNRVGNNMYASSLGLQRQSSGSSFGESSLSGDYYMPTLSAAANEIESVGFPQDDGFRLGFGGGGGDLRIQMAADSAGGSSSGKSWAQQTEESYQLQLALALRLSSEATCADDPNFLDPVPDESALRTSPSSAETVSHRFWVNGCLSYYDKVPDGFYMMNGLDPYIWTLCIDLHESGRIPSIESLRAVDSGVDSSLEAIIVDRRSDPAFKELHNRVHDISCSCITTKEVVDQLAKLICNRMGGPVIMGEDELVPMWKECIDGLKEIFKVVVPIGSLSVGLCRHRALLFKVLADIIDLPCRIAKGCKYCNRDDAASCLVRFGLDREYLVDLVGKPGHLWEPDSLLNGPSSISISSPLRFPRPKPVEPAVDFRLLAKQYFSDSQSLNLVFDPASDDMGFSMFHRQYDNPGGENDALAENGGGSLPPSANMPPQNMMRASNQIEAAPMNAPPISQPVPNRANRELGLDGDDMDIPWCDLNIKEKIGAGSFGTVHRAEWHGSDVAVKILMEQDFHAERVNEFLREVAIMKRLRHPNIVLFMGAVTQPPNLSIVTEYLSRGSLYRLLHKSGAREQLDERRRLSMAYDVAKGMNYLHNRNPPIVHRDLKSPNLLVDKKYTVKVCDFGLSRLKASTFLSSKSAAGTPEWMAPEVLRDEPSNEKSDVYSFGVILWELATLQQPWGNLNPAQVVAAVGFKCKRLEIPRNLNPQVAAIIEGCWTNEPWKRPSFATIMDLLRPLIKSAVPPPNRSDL
∆NT-CTR1^AAA (kinase domain of CTR1 with T704/S707/S710 altered to Ala) (Q05609, form named): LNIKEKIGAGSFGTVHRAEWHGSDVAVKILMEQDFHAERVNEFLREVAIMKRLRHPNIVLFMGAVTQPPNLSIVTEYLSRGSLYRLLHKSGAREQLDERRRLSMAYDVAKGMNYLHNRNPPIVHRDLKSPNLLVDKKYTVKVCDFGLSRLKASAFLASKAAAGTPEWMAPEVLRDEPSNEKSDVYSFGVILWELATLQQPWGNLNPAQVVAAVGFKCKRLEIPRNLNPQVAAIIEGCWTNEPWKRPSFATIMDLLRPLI
∆NT-CTR1-1 (kinase domain of CTR1 with the ctr1-1 mutation D694E, catalytically inactive) (Q05609, form named): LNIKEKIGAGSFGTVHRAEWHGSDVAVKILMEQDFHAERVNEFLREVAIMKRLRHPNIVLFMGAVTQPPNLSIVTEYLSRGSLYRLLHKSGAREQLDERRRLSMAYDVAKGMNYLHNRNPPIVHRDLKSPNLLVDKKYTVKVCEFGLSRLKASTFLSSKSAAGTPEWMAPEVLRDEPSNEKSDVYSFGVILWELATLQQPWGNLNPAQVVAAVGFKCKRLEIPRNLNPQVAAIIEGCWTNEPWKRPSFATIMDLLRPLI

B1: EBF2 expressed in N. benthamiana for co-immunoprecipitation (protein, UniProt Q708Y0 1-623)
chain: MSGIFRFSGDEDCLLGGSMYLSPGSCPGVYYPARKRLRVAATSFYSGFEEKQTSIDVLPEECLFEILRRLPSGQERSACACVSKHWLNLLSSISRSEVNESSVQDVEEGEGFLSRSLEGKKATDLRLAAIAVGTSSRGGLGKLQIRGSGFESKVTDVGLGAVAHGCPSLRIVSLWNLPAVSDLGLSEIARSCPMIEKLDLSRCPGITDSGLVAIAENCVNLSDLTIDSCSGVGNEGLRAIARRCVNLRSISIRSCPRIGDQGVAFLLAQAGSYLTKVKLQMLNVSGLSLAVIGHYGAAVTDLVLHGLQGVNEKGFWVMGNAKGLKKLKSLSVMSCRGMTDVGLEAVGNGCPDLKHVSLNKCLLVSGKGLVALAKSALSLESLKLEECHRINQFGLMGFLMNCGSKLKAFSLANCLGISDFNSESSLPSPSCSSLRSLSIRCCPGFGDASLAFLGKFCHQLQDVELCGLNGVTDAGVRELLQSNNVGLVKVNLSECINVSDNTVSAISVCHGRTLESLNLDGCKNITNASLVAVAKNCYSVNDLDISNTLVSDHGIKALASSPNHLNLQVLSIGGCSSITDKSKACIQKLGRTLLGLNIQRCGRISSSTVDTLLENLWRCDILY
B2: EIN3-Binding F-box 1 (EBF1), two-hybrid fusion (protein, UniProt Q9SKK0 1-628)
chain: MSQIFSFAGENDFYRRGAIYPNPKDASLLLSLGSFADVYFPPSKRSRVVAPTIFSAFEKKPVSIDVLPDECLFEIFRRLSGPQERSACAFVSKQWLTLVSSIRQKEIDVPSKITEDGDDCEGCLSRSLDGKKATDVRLAAIAVGTAGRGGLGKLSIRGSNSAKVSDLGLRSIGRSCPSLGSLSLWNVSTITDNGLLEIAEGCAQLEKLELNRCSTITDKGLVAIAKSCPNLTELTLEACSRIGDEGLLAIARSCSKLKSVSIKNCPLVRDQGIASLLSNTTCSLAKLKLQMLNVTDVSLAVVGHYGLSITDLVLAGLSHVSEKGFWVMGNGVGLQKLNSLTITACQGVTDMGLESVGKGCPNMKKAIISKSPLLSDNGLVSFAKASLSLESLQLEECHRVTQFGFFGSLLNCGEKLKAFSLVNCLSIRDLTTGLPASSHCSALRSLSIRNCPGFGDANLAAIGKLCPQLEDIDLCGLKGITESGFLHLIQSSLVKINFSGCSNLTDRVISAITARNGWTLEVLNIDGCSNITDASLVSIAANCQILSDLDISKCAISDSGIQALASSDKLKLQILSVAGCSMVTDKSLPAIVGLGSTLLGLNLQQCRSISNSTVDFLVERLYKCDILS
B3: EIN3-Binding F-box 2 (EBF2), two-hybrid fusion (protein, UniProt Q708Y0 1-623)
chain: B1 chain
B4: cYFP-EBF1 (BiFC) (protein, UniProt Q9SKK0 1-628)
chain: B2 chain
B5: cYFP-EBF2 (BiFC) (protein, UniProt Q708Y0 1-623)
chain: B1 chain
B6: ETHYLENE-…3 (EIN3), two-hybrid fusion (protein, UniProt O24606 1-628)
chain: MMFNEMGMCGNMDFFSSGSLGEVDFCPVPQAEPDSIVEDDYTDDEIDVDELERRMWRDKMRLKRLKEQDKGKEGVDAAKQRQSQEQARRKKMSRAQDGILKYMLKMMEVCKAQGFVYGIIPENGKPVTGASDNLREWWKDKVRFDRNGPAAITKYQAENNIPGIHEGNNPIGPTPHTLQELQDTTLGSLLSALMQHCDPPQRRFPLEKGVPPPWWPNGKEDWWPQLGLPKDQGPAPYKKPHDLKKAWKVGVLTAVIKHMFPDIAKIRKLVRQSKCLQDKMTAKESATWLAIINQEESLARELYPESCPPLSLSGGSCSLLMNDCSQYDVEGFEKESHYEVEELKPEKVMNSSNFGMVAKMHDFPVKEEVPAGNSEFMRKRKPNRDLNTIMDRTVFTCENLGCAHSEISRGFLDRNSRDNHQLACPHRDSRLPYGAAPSRFHVNEVKPVVGFPQPRPVNSVAQPIDLTGIVPEDGQKMISELMSMYDRNVQSNQTSMVMENQSVSLLQPTVHNHQEHLQFPGNMVEGSFFEDLNIPNRANNNNSSNNQTFFQGNNNNNNVFKFDTADHNNFEAAHNNNNNSSGNRFQLVFDSTPFDMASFDYRDDMSMPGVVGTMDGMQQKQQDVSIWF
B7: EIN3 with C-terminal cYFP (BiFC) (protein, UniProt O24606 1-628)
chain: B6 chain

Columns and labels:
[1] = biological target: ∆NT-CTR1^AAA (kinase domain of CTR1 with T704/S707/S710 altered to Ala) (Arabidopsis thaliana) (UniProt Q05609); assay: two-hybrid; bait and prey constructs (pGBKT7, pGADT7) co-transformed into yeast strain AH109; positive interactions selected on medium lacking histidine, tryptophan, leucine and adenine
[2] = biological target: ∆NT-CTR1 (CTR1 lacking the N-terminal domain; kinase domain of CONSTITUTIVE TRIPLE RESPONSE1) (Arabidopsis thaliana) (UniProt Q05609); assay: as above
[3] = biological target: CTR1 expressed in N. benthamiana for co-immunoprecipitation (Arabidopsis thaliana) (UniProt Q05609); assay: co-IP; total protein extracts of N. benthamiana leaves infiltrated with co-transformed Agrobacteria, 3 d; anti-GFP overnight at 4 °C, Protein A/G magnetic beads; buffer 25 mM Tris pH 7.5, 150 mM NaCl, 5 mM EDTA, 1 mM DTT; blots with anti-GFP and anti-Myc
[4] = biological target: ∆NT-CTR1 (CTR1 lacking the N-terminal domain; kinase domain of CONSTITUTIVE TRIPLE RESPONSE1) (Arabidopsis thaliana) (UniProt Q05609); assay: two-hybrid; bait and prey constructs (pGBKT7, pGADT7) co-transformed into yeast strain AH109; positive interactions selected on medium lacking histidine, tryptophan, leucine and adenine; remark: listed apart in the source
[5] = biological target: ∆NT-CTR1-1 (kinase domain of CTR1 with the ctr1-1 mutation D694E, catalytically inactive) (Arabidopsis thaliana) (UniProt Q05609); assay: as above
[6] = biological target: Full-length wild-type CTR1, nYFP fusion for BiFC (Arabidopsis thaliana) (UniProt Q05609); assay: split reporter; BiFC (nYFP and cYFP fusions) in infiltrated N. benthamiana leaves, confocal microscopy of leaf disks; with or without ACC

Molecule	binding [4]	binding [5]	binding [6]	further results
∆NT-CTR1^AAA (kinase domain of CTR1 with T704/S707/S710 altered to Ala) (from UniProt Q05609 551-809) (domain or fragment)				binding [1]: no binding
∆NT-CTR1 (CTR1 lacking the N-terminal domain; kinase domain of CONSTITUTIVE TRIPLE RESPONSE1) (from UniProt Q05609 551-809) (domain or fragment)				binding [2]: binds
B1				binding [3]: binds
B2	binds	binds		
B3	binds	binds		
B4			binds	
B5			binds	
B6	no binding	no binding		
B7			no binding	
